Data published in a collection of fitness landscapes (doi:10.1016/j.celrep.2020.107928).
Over roughly 81,000 sequences, “one-hybrid fitness for binding parS DNA” has its median near -0.17; the highest 2% begin near 0.51. The list shows a part of the results.

B1: Caulobacter ParB omega fusion; a variant is named by its letters at X, in order, B8GW30 (parent)
chain: MESVVVGEPGMSEGRRGLGRGLSALLGEVDAAPAQAPGEQLGGSREAPIEILQRNPDQPRRTFREEDLEDLSNSIREKGVLQPILVRPSPDTAGEYQIVAGERAWRAAQRAGLKTVPIMVRELDDLAVLEIGIIENVQRADLNVLEEALSYKVLMEKFERTQENIAQTIGKSXSHVANXMRLLXLPDEVQSYLVSGELTAXHARAIAAAADPVALAKQIIEGGLSVRETEALARKAPNLSAGKSKGGRPPRVKDTDTQALESDLSSVLGLDVSIDHRGSTGTLTITYATLEQLDDLCNRLTRGI

Variants of: B1
Experiment: one-hybrid fitness for binding parS DNA (scaled: cognate 1, non-cognate 0); higher = stronger binding
Settings: with parS DNA site
Procedure, shortened: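 Fitness is the rescaled log change in variant-to-wild-type read ratio, measured by Illumina sequencing of plasmids before and after bacterial one-hybrid selection. The scale puts cognate at 1 and non-cognate at 0. Selection of Caulobacter ParB libraries, four specificity codons randomised, took place in E. coli USO with a HIS3 reporter, site 19 bp from the promoter, over 48 hours at 37°C on M9-minus-histidine with 0.1 mM IPTG and 5 mM 3-AT.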

Variant	one-hybrid fitness for binding parS DNA
RGNI	≤ 0.2
TRQA	≤ 0.2
KAFT	≤ 0.2
GWAR	≤ 0.2
RKRE	≤ 0.2
IKLD	≤ 0.2
LAYY	≤ 0.2
RWPD	≤ 0.2
QFIA	≤ 0.2
SDSY	≤ 0.2
WREC	≤ 0.2
PCAG	≤ 0.2
LYHY	≤ 0.2
NKRR	≤ 0.2
RAEW	≤ 0.2
HEWT	≤ 0.2
APQE	≤ 0.2
CYAS	≤ 0.2
IHHS	≤ 0.2
IMPL	≤ 0.2
QLTE	≤ 0.2
CGNV	0.225
ERGC	≤ 0.2
CGDK	≤ 0.2

Variant	one-hybrid fitness for binding parS DNA
VWAS	≤ 0.2
WKDY	≤ 0.2
ESFE	≤ 0.2
CLLM	≤ 0.2
LLQQ	≤ 0.2
RIMT	0.878
IVVG	≤ 0.2
AQRP	≤ 0.2
RVTN	0.432
PALI	≤ 0.2
YQMS	≤ 0.2
VIPM	≤ 0.2
FPCT	≤ 0.2
WNDG	≤ 0.2
VYCN	≤ 0.2
RMPA	0.393
NWMT	≤ 0.2
DFSL	≤ 0.2
RVQK	≤ 0.2
KPKY	≤ 0.2
NEMR	≤ 0.2
LHSA	≤ 0.2
AYAE	≤ 0.2
RFMI	≤ 0.2

Variant	one-hybrid fitness for binding parS DNA
CRPG	≤ 0.2
QHPA	≤ 0.2
NYLI	≤ 0.2
SNIR	≤ 0.2
DQVS	≤ 0.2
SWRW	≤ 0.2
KGQY	≤ 0.2
YTNR	≤ 0.2
RFGK	≤ 0.2
YASY	≤ 0.2
GETQ	≤ 0.2
TMHW	≤ 0.2
FMTC	≤ 0.2
KGTW	≤ 0.2
AYIS	≤ 0.2
RVPC	0.637
ANHC	≤ 0.2
CYTD	≤ 0.2
WMQT	≤ 0.2
LPMS	≤ 0.2
PERG	≤ 0.2
KYKF	≤ 0.2
SGMD	≤ 0.2
TNRG	≤ 0.2

Variant	one-hybrid fitness for binding parS DNA
THLR	≤ 0.2
CLGE	≤ 0.2
EGLC	≤ 0.2
SKIG	≤ 0.2
ALVE	≤ 0.2
TLTN	≤ 0.2
RTFW	0.233
ELQE	≤ 0.2
YIRH	≤ 0.2
VFPR	≤ 0.2
EMFR	≤ 0.2
YTLC	≤ 0.2
ARSK	≤ 0.2
ELAG	≤ 0.2
YAGW	≤ 0.2
FKRG	≤ 0.2
RCMY	0.467
QHKF	≤ 0.2
DLQS	≤ 0.2
ADYV	≤ 0.2
TITS	≤ 0.2
ICGR	≤ 0.2
KTNS	≤ 0.2
VQYV	≤ 0.2

Variant	one-hybrid fitness for binding parS DNA
HPSM	≤ 0.2
YAVG	≤ 0.2
LNRC	≤ 0.2
QVLT	≤ 0.2
TPPE	≤ 0.2
MIRT	≤ 0.2
QSVP	≤ 0.2
FQFL	≤ 0.2
ISTG	≤ 0.2
PTRF	≤ 0.2
NHYI	≤ 0.2
RHEH	≤ 0.2
VAHW	≤ 0.2
MPPE	≤ 0.2
SQRS	≤ 0.2
HYPT	≤ 0.2
VYTQ	≤ 0.2
LMDT	≤ 0.2
EKNM	0.267
THQF	≤ 0.2
ANID	≤ 0.2
LSCR	≤ 0.2
RVHD	≤ 0.2
ACLS	≤ 0.2

Variant	one-hybrid fitness for binding parS DNA
SARA	≤ 0.2
KFKT	≤ 0.2
LCDD	≤ 0.2
IRNK	≤ 0.2
AIKD	≤ 0.2
YECV	≤ 0.2
RAAD	≤ 0.2
LWSF	≤ 0.2
APHI	≤ 0.2
FGPC	≤ 0.2
EVTI	≤ 0.2
FEEG	≤ 0.2
AFGC	≤ 0.2
SSVV	≤ 0.2
SLYF	≤ 0.2
LLSP	≤ 0.2
YDRR	≤ 0.2
FAGG	≤ 0.2
TIPY	≤ 0.2
THYI	≤ 0.2
RVCN	0.438
PCYC	≤ 0.2
KWLA	≤ 0.2
MSGG	≤ 0.2

Variant	one-hybrid fitness for binding parS DNA
SAFS	≤ 0.2
HIRV	≤ 0.2
RNIT	0.427
GMCS	≤ 0.2
NNWS	≤ 0.2
TTFP	≤ 0.2
GCHI	≤ 0.2
VMTL	≤ 0.2
NRTF	≤ 0.2
TDPV	≤ 0.2
GIKA	≤ 0.2
KAQC	≤ 0.2
PGPV	≤ 0.2
PPDI	≤ 0.2
EQTA	≤ 0.2
NSSM	≤ 0.2
ALQC	≤ 0.2
HTYR	≤ 0.2
RIAD	0.212
HQVC	≤ 0.2
ITTC	≤ 0.2
PTYC	≤ 0.2
DPRY	≤ 0.2
IQGC	≤ 0.2

Variant	one-hybrid fitness for binding parS DNA
SALP	≤ 0.2
TPPR	≤ 0.2
INMN	0.304
GTSH	≤ 0.2
APVM	≤ 0.2
PLQQ	≤ 0.2
DVPF	≤ 0.2
DTAF	≤ 0.2
MQHG	≤ 0.2
HDNA	≤ 0.2
YFTR	≤ 0.2
VMKR	≤ 0.2
GLSW	≤ 0.2
NVNA	≤ 0.2
RNIL	≤ 0.2
HMML	≤ 0.2
LVPF	≤ 0.2
QRRT	≤ 0.2
WSEI	≤ 0.2
WHLT	≤ 0.2
NAGY	≤ 0.2
SRQQ	≤ 0.2
RIHI	≤ 0.2
HEKF	≤ 0.2

Variant	one-hybrid fitness for binding parS DNA
QAHK	≤ 0.2
MWAR	≤ 0.2
SRNK	≤ 0.2
MMKN	≤ 0.2
PSPI	≤ 0.2
YIHY	≤ 0.2
LYQE	≤ 0.2
RRHV	≤ 0.2
QFPM	≤ 0.2
LGVM	≤ 0.2
PCIS	≤ 0.2
VEQR	≤ 0.2
PPMN	≤ 0.2
EKDF	≤ 0.2
TCWR	≤ 0.2
SPRA	≤ 0.2
NCMS	≤ 0.2
PTVR	≤ 0.2
KAYG	≤ 0.2
VNNF	≤ 0.2
LVWH	≤ 0.2
SPCC	≤ 0.2
TKMN	≤ 0.2
MPNL	≤ 0.2

Variant	one-hybrid fitness for binding parS DNA
PRND	≤ 0.2
PLLI	≤ 0.2
MIVS	≤ 0.2
ATDT	≤ 0.2
YIVY	≤ 0.2
PCAL	≤ 0.2
TRQP	≤ 0.2
QLAG	≤ 0.2
HRCR	≤ 0.2
QRSK	≤ 0.2
RFPW	≤ 0.2
RICV	≤ 0.2
PQVP	≤ 0.2
CREG	≤ 0.2
RDTA	≤ 0.2
TMPL	≤ 0.2
IYKV	≤ 0.2
KTRA	≤ 0.2
HQPQ	≤ 0.2
RKRL	≤ 0.2
RFAW	≤ 0.2
GLAT	≤ 0.2
SVWP	≤ 0.2
RSVR	≤ 0.2

Variant	one-hybrid fitness for binding parS DNA
PMTN	≤ 0.2
PVFT	≤ 0.2
AFRY	≤ 0.2
NHVS	≤ 0.2
QPTW	≤ 0.2
NRNR	≤ 0.2
SDGT	≤ 0.2
FLES	≤ 0.2
YINC	≤ 0.2
STYG	≤ 0.2
CRRH	≤ 0.2
TCPK	≤ 0.2
HFLY	≤ 0.2
VFTI	≤ 0.2
HVPD	≤ 0.2
VHLW	≤ 0.2
ADRT	≤ 0.2
LYRA	≤ 0.2
DYHG	≤ 0.2
IWDS	≤ 0.2
HRVA	≤ 0.2
AGYL	≤ 0.2
IKVS	≤ 0.2
KRGR	0.339

Variant	one-hybrid fitness for binding parS DNA
HYKE	≤ 0.2
DSNC	≤ 0.2
IGIL	≤ 0.2
QSTI	≤ 0.2
VFKV	≤ 0.2
HTMC	≤ 0.2
TNDH	≤ 0.2
LYPR	≤ 0.2
PMDY	≤ 0.2
GYSA	≤ 0.2
KRKD	≤ 0.2
PDPK	≤ 0.2
LRCL	≤ 0.2
YFNT	≤ 0.2
MNTW	≤ 0.2
GMGS	≤ 0.2
ICRL	≤ 0.2
KQEY	≤ 0.2
RRGY	0.361
IIPF	≤ 0.2
KSAR	≤ 0.2
HPMP	≤ 0.2
KWIR	≤ 0.2
KMHG	≤ 0.2

Variant	one-hybrid fitness for binding parS DNA
CITG	≤ 0.2
KFTM	≤ 0.2
GKAF	≤ 0.2
RAKN	0.462
KRDT	≤ 0.2
QCTL	≤ 0.2
KVHR	≤ 0.2
LNIR	≤ 0.2
PRKF	≤ 0.2
VSNL	≤ 0.2
QLWT	≤ 0.2
STPS	≤ 0.2
NAVF	≤ 0.2
SQLN	≤ 0.2
DMRG	≤ 0.2
MHYH	≤ 0.2
LTWS	≤ 0.2
SYHC	≤ 0.2
